Data: patent US20240043489A1, “Cytokine Prodrugs Comprising a Cleavable Linker” (Trutino Biosciences Inc., priority 2020, published 2024)
Read-outs that look alike come from different tables or passages of the source.

B1: Construct E: SEQ ID NO 106: Hu IL2(C125S)-2x(SG4)-MMPcs1-2x(G4S)-IL2Ralpha-hu IgG1 Fc-6xHIS (protein)
chain: [no letters for about 150 residues]SGGGGSGGGGGPLGVRGGGGGSGGGGSELCDDDPPEIPHATFKAMAYKEGTMLNCECKRGFRRIKSGSLYMLCTGNSSHSSWDNQCQCTSSATRNTTKQVTPQPEEQKERKTTEMQSPMQPVDQASLPGHCREPPPWENEATERIYHFVVGQMVYYQCVQGYRALHRGPAESVCKMTHGKTRWTQPQLICTGEMETSQFPGEEKPQASPEGRPESETSCLVTTTDFQIQTEMAATMETSIFTTEYQ[no letters for human IgG1 Fc and a few adjoining residues]
B2: Construct M: SEQ ID NO 841: hIL2(C125S)-2x(SG4)-MMPcs1-2x(G4S)-hIL2Ra([…])-hu IgG1 Fc-6xHis (protein)
chain: [no letters for about 150 residues]SGGGGSGGGGGPLGVRGGGGGSGGGGSELCDDDPPEIPHATFKAMAYKEGTMLNCECKRGFRRIKSGSLYMLCTGNSSHSSWDNQCQCTSSATRNTTKQVTPQPEEQKERKTTEMQSPMQPVDQASLPGHCREPPPWENEATERIYHFVVGQMVYYQCVQGYRALHRGPAESVCKMTHGKTRWTQPQLICTGEMETSQFPGEEKPQASPEGRPESET[no letters for human IgG1 Fc]
modifications: 6xHis tag
B3: Construct N: SEQ ID NO 842: hIL2(C125S)-2x(SG4)-MMPcs1-2x(G4S)-hIL2Ra([…])-GSGGGG-hu IgG1 Fc-6xHis (protein)
chain: [no letters for about 150 residues]SGGGGSGGGGGPLGVRGGGGGSGGGGSELCDDDPPEIPHATFKAMAYKEGTMLNCECKRGFRRIKSGSLYMLCTGNSSHSSWDNQCQCTSSATRNTTKQVTPQPEEQKERKTTEMQSPMQPVDQASLPGHCREPPPWENEATERIYHFVVGQMVYYQCVQGYRALHRGPAESVCKMTHGKTRWTQPQLICTGEMETSQFPGEEKPQASPEGRPESETSCGSGGGG[no letters for human IgG1 Fc]
modifications: 6xHis tag
B4: Construct O: SEQ ID NO 843: hIL2(C125S)-2x(SG4)-MMPcs1-2x(G4S)-hIL2Ra([…]/M25I)-GSGGGG-hu IgG1 Fc-6xHis (protein)
chain: [no letters for about 150 residues]SGGGGSGGGGGPLGVRGGGGGSGGGGSELCDDDPPEIPHATFKAMAYKEGTILNCECKRGFRRIKSGSLYMLCTGNSSHSSWDNQCQCTSSATRNTTKQVTPQPEEQKERKTTEMQSPMQPVDQASLPGHCREPPPWENEATERIYHFVVGQMVYYQCVQGYRALHRGPAESVCKMTHGKTRWTQPQLICTGEMETSQFPGEEKPQASPEGRPESETSCGSGGGG[no letters for human IgG1 Fc]
modifications: 6xHis tag
B5: Construct P: SEQ ID NO 844: hIL2(C125S)-2x(SG4)-MMPcs1-2x(G4S)-hIL2Ra([…]/L42V)-GSGGGG-hu IgG1 Fc-6xHis (protein)
chain: [no letters for about 150 residues]SGGGGSGGGGGPLGVRGGGGGSGGGGSELCDDDPPEIPHATFKAMAYKEGTMLNCECKRGFRRIKSGSVYMLCTGNSSHSSWDNQCQCTSSATRNTTKQVTPQPEEQKERKTTEMQSPMQPVDQASLPGHCREPPPWENEATERIYHFVVGQMVYYQCVQGYRALHRGPAESVCKMTHGKTRWTQPQLICTGEMETSQFPGEEKPQASPEGRPESETSCGSGGGG[no letters for human IgG1 Fc]
modifications: 6xHis tag
B6: Construct Q: SEQ ID NO 845: hIL2(C125S)-2x(SG4)-MMPcs1-2x(G4S)-hIL2Ra([…]/D4L, D5Y)-GSGGGG-hu IgG1 Fc-6xHis (protein)
chain: [no letters for about 150 residues]SGGGGSGGGGGPLGVRGGGGGSGGGGSELCLYDPPEIPHATFKAMAYKEGTMLNCECKRGFRRIKSGSLYMLCTGNSSHSSWDNQCQCTSSATRNTTKQVTPQPEEQKERKTTEMQSPMQPVDQASLPGHCREPPPWENEATERIYHFVVGQMVYYQCVQGYRALHRGPAESVCKMTHGKTRWTQPQLICTGEMETSQFPGEEKPQASPEGRPESETSCGSGGGG[no letters for human IgG1 Fc]
modifications: 6xHis tag

Tests used:
[1] = test system: HEK-Blue™ IL-2 cells; assay: HEK-Blue IL2 reporter assay (SEAP, OD630); type: cell-based; conditions: for EC50: Table 5B, HEK BLUE IL2
Procedure: Recombinant MMP9 and/or MMP2 (R&D Systems) was first activated with p-aminophenylmercuric acetate and this activated protease or equivalent amount of activating solution without the protease was used to digest or mock digest the fusion protein for 1 hr, 2 hr, 4 hr and overnight (18-22 hr) at 37 C. Cleavage assays are set up in TCNB buffer: 50 mM Tris, 10 mM CaCl2), 150 mM NaCl, 0.05% Brij-35 (w/v), pH 7.5. Digested protein was aliquoted and stored at −80° C. prior to testing. Aliquots of digests were subsequently analyzed by SDS-PAGE followed by Western blotting to evaluate the extent of cleavage. Digests were also assessed in functional assays such as CTLL-2 proliferation and HEK-Blue Interleukin reporter assays. As shown in FIGS. 2A-E, essentially complete cleavage by MMP9 protease of the fusion proteins with functional site is seen after overnight incubation. In contrast, proteins containing a scrambled MMP cleavage site are not cut (FIG. 2E). HEK-Blue™ IL-2 cells are specifically designed to monitor the activation of the JAK-STAT pathway induced by IL-2. Indeed, stimulation with human or murine IL-2 triggers the JAK/STAT5 pathway and induces secreted embryonic alkaline phosphatase (SEAP) production. SEAP can be readily monitored when using QUANTI-Blue™, a SEAP detection medium. These cells respond to human and murine IL-2. For the HEK Blue assay, untreated and digested samples are titrated and added to 50 000 HEK Blue cells per well in 200 ul medium in a 96-well plate and incubated at 37C in 5% CO2 for 20-24 hr. The following day, levels of SEAP are measured by adding 20 uL of cell supernatant to QuantiBlue reagent, followed by 1-3 h incubation at 37C and reading absorbance at 630 nm. FIGS. 3C-J, 3Q-Y and Table 5B-5C show results obtained from IL2 fusion proteins tested in HEK Blue IL2 assay.

[2] = biological target: T1, MMP9 (Mus musculus, UniProt P41245); assay: Cleavage of fusion protein by MMP9 protease (SDS-PAGE / Western blot); type: biochemical
T1 construct: purchased R&D Systems
Procedure: (§1) Recombinant MMP9 and/or MMP2 (R&D Systems) was first activated with p-aminophenylmercuric acetate and this activated protease or equivalent amount of activating solution without the protease was used to digest or mock digest the fusion protein for 1 hr, 2 hr, 4 hr and overnight (18-22 hr) at 37 C. Cleavage assays are set up in TCNB buffer: 50 mM Tris, 10 mM CaCl2), 150 mM NaCl, 0.05% Brij-35 (w/v), pH 7.5. Digested protein was aliquoted and stored at −80° C. prior to testing. Aliquots of digests were subsequently analyzed by SDS-PAGE followed by Western blotting to evaluate the extent of cleavage. Digests were also assessed in functional assays such as CTLL-2 proliferation and HEK-Blue Interleukin reporter assays. As shown in FIGS. 2A-E, essentially complete cleavage by MMP9 protease of the fusion proteins with functional site is seen after overnight incubation. In contrast, proteins containing a scrambled MMP cleavage site are not cut (FIG. 2E).
Untreated and digested fusion proteins were evaluated for cleavage products by Western blot. The following monoclonal antibodies were used: rat anti-mouse IL-2 antibody (JES6-1A12; ThermoFisher), goat anti-mouse IL-2 polyclonal antibody (AF-402-NA; R&D systems), mouse anti-6xHis monoclonal antibody (MA1-21315, ThermoFisher), Anti-mIgG Fc HRP conjugated (ThermoFisher cat #A16084), and Anti-human IL2 antibody (Invitrogen, cat #MA5-17097, mouse IgG1). Detection was performed using either a goat anti-rat HRP-conjugated antibody, Donkey Anti-goat HRP-conjugated antibody or Goat Anti-mouse HIRP conjugated (Jackson Immuno Research, West Grove, PA) and developed using the SuperSignal West Femto Maximum sensitivity detection reagent (ThermoFisher) following the manufacturer's recommendations.

[3] = Aggregation, stability and homogeneity by Coomassie-stained SDS-PAGE; type: physicochemical; conditions: compared with Construct E
Excerpt: Aggregation, stability, and homogeneity of Construct E, Construct M, and Construct N were compared using Coomassie-stained SDS-PAGE analysis (FIG. 3M).

[4] = test system: CTLL-2 cells; assay: CTLL-2 proliferation assay (MTT); type: cell-based; conditions: cleaved by MMP-2 for 2 hr
Procedure: as §1
IL-2 activity was measured using either CTLL-2 cells (ATCC) or the reporter cell line HEK Blue IL2 (Invivogen, San Diego). In brief, for the CTLL-2 assay a titration of untreated and digested samples is added to 40 000 CTLL-2 cells per well in 100 ul medium in a 96-well plate and incubated at 37C in 5% CO2 for 18-22 hr. At the end of this period, 50ug/well Thiazolyl Blue Tetrazolium Bromide (MTT) (Sigma-Aldrich) was added and the plate was incubated for 5 hr at 37C in 5% CO2. Cells were lysed with 100 µl/well 10% SDS (Sigma) acidified with HCl, incubated at 37C for 4 hr, and absorbance was read at 570 nm. Recombinant human or mouse IL-2 (Peprotech and R&D systems respectively) was used as a positive control. FIGS. 3A-B, 3K-L and 3N-P show examples of untreated and digested fusion proteins evaluated in CTLL-2 proliferation assay.

T1 sequence (P41245 108-730): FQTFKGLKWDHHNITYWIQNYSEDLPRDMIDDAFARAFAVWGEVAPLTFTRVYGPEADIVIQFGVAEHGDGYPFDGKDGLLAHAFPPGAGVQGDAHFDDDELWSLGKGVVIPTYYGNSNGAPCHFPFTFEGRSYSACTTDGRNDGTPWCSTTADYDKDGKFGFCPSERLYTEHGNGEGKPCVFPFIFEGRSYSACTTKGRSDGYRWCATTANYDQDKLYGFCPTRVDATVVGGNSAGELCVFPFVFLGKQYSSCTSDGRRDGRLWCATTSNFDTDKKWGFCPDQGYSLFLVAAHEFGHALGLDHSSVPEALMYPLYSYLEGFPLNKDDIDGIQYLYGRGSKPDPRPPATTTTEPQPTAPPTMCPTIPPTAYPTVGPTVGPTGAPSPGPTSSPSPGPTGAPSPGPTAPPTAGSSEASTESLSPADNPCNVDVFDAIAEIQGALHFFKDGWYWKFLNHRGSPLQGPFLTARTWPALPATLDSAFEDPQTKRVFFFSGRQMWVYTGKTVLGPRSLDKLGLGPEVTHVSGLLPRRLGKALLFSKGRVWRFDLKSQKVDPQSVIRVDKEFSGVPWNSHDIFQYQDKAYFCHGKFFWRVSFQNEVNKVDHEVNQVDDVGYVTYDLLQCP

Row | Molecule | aggregation, stability and homogeneity [3] | CTLL-2 cell proliferation, MMP-2 treated construct [4] | further results
1 | B1 |  |  | EC50 ([1]; cleaved with MMP9, read-out: +MMP EC50): 0.0073 nM; EC50 ([1]; uncleaved, read-out: −MMP EC50): 0.103 nM; FOLD DIFFERENCE EC50 (HEK BLUE IL2) ([1]; −MMP vs +MMP): 14; full-length cytokine prodrug remaining ([2]; 22 hour +MMP time point): essentially no band; time at which cleavage product was detectable ([2]; +MMP-9 digestion, Western blot): 1 h
2 | B2 | decreased aggregation and greater stability and homogeneity | stimulate CTLL-2 cell proliferation in a dose dependent manner | 
3 | B3 | decreased aggregation and greater stability and homogeneity | stimulate CTLL-2 cell proliferation in a dose dependent manner | 
4 | B4 |  | stimulate CTLL-2 cell proliferation in a dose dependent manner | 
5 | B5 |  | stimulate CTLL-2 cell proliferation in a dose dependent manner | 
6 | B6 |  | stimulate CTLL-2 cell proliferation in a dose dependent manner | 
